Assay results published in PubChem BioAssay AID485294 (National Center for Advancing Translational Sciences (NCATS), 2010).
Among all 370,000 compounds or so, about 150 (0.041%) were called active. The shares of active, inactive and inconclusive entries below differ from those in the screen. Calls come from the whole dose curve; as a rule, active = well fitted inhibition curve with a large enough effect; inconclusive = small, poorly fitted or top-dose-only effect; inactive = flat fitted curve, though single readings scatter. Potencies of inconclusive entries are left out as doubtful fits.

Molecular target: Beta-lactamase (Escherichia coli (strain K12)) (UniProt P00811)
Chain of UniProt P00811 (P00811 whole entry, looked up): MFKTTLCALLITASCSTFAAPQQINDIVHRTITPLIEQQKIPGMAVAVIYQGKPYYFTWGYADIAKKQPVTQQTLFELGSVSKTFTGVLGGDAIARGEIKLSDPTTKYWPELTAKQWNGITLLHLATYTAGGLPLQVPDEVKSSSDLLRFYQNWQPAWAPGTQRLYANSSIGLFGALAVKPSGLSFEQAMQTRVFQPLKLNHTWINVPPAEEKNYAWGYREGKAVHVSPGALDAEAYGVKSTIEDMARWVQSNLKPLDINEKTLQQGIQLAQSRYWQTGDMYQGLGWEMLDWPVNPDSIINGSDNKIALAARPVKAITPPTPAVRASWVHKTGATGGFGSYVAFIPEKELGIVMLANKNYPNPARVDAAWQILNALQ
Test: qHTS Inhibitors of AmpC Beta-Lactamase (assay with detergent); note: nearly all actives have a fitted effect of over 25% in size
Settings: AmpC hydrolysis of nitrocefin, absorbance 480 nm, 0.01% Triton; series mostly up to 114 µM
Procedure, shortened: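 AmpC (5.3 nM in the dispensed reagent) in 20 mM phosphate pH 7.0 with 0.01% (detergent screen) or 0.0001% Triton X-100 was preincubated with compounds for 15 min at room temperature. Nitrocefin was then added from an 800 uM solution, and hydrolysis was followed at 480 nm.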
Potency is the fitted concentration of half-maximal effect; tags give direction and shape of the fitted curve.

| Compound | Potency |
| --- | --- |
| Cc1cccc(NC(=O)CSc2nnc(CCCCCNC(=O)OC(C)(C)C)o2)c1C | inconclusive [inhibitor, full curve] |
| N#Cc1nc(-c2ccc(OCc3ccc(Cl)cc3)cc2)oc1N1CCC(C(N)=O)CC1 | inconclusive [inhibitor, full curve] |
| Cc1[nH]c(=S)c(C#N)c(C)c1CCC#N | inactive |
| O=C(CSc1ncc2c(n1)-c1cc(Cl)ccc1N(Cc1ccccc1F)S2(=O)=O)Nc1cccc(C(F)(F)F)c1 | inactive |
| Cc1cc(NC(=O)CCC2CCCC2)no1 | inconclusive [inhibitor, full curve, poor fit] |
| O=C(COC(=O)COc1ccc(Cl)cc1)NCCNC(=O)COC(=O)COc1ccc(Cl)cc1 | inconclusive [inhibitor, full curve, poor fit] |
| CN(Cc1nccn1C)C(=O)c1ccc(OC2CCN(CCc3ccccc3)CC2)cc1 | inconclusive [inhibitor, partial curve] |
| CCOC(=O)CN1C(=O)COc2ccc(Cl)cc21 | inconclusive [inhibitor, partial curve, poor fit] |
| COC(=O)C1(O)CC(CC(C)C)=NN1C(=O)c1ccccc1 (stereo not given) | inactive |
| Cc1ccc(NC2CCCN(C(=O)CSc3ccccn3)C2)cc1C (stereo not given) | inactive |
| COc1ccc(C(CC(=O)Nc2ccc(C)cc2)NC(=O)C(F)(F)F)cc1 (stereo not given) | inconclusive [inhibitor, full curve, poor fit] |
| C/C(=N\NC(=O)c1cc(C)[nH]n1)c1ccc(-c2ccccc2)cc1 | inactive |
| O=C(NC(=S)NCC1COc2ccccc2O1)c1ccccc1 (stereo not given) | inactive |
| N#Cc1c2ccccc2nc2ccccc12 | inactive |
| CCCc1cc(=O)oc2c(CN3CCOCC3)c(O)ccc12 | inconclusive [inhibitor, full curve] |
| O=C(c1cc(-c2ccccc2)on1)N1CCN(C(=O)c2ccco2)CC1 | inconclusive [inhibitor, full curve, poor fit] |
| O=C(NC(=S)Nc1nc2c(s1)CCCC2)c1ccc(C(=O)c2ccccc2)cc1 | inactive |
| CC1CCCCC1NS(=O)(=O)CCNC(=O)c1ccc2c(c1)OCO2 (stereo not given) | inconclusive [inhibitor, full curve, poor fit] |
| O=C(O)/C=C/C(=O)Nc1cccnc1 | inconclusive [inhibitor, full curve, poor fit] |
| CC(OC(=O)Cc1n[nH]c(=O)c2ccccc12)C(=O)Nc1ccc(F)cc1 (stereo not given) | inconclusive [inhibitor, single point] |
| Cn1c(=O)[nH]c(=O)c2c1nc(NC1CCCCC1)n2CC(=O)NC1CCCCC1 | inconclusive [inhibitor, full curve, poor fit] |
| O=C(/C=C/c1ccccc1)Nc1cccnc1Oc1ccccc1F | inactive |
| Cc1sc2ncn(CC(=O)N(CC(=O)NC3CCCC3)Cc3cccs3)c(=O)c2c1C | inconclusive [inhibitor, single point] |
| CCN(CC)c1ccc(/C=C(/C#N)c2nc3ccccc3[nH]2)c(OC(C)C)c1 | inactive |

| Compound | Potency |
| --- | --- |
| Cc1noc(C)c1Cn1nc(C(=O)O)c2ccccc2c1=O | inconclusive [inhibitor, full curve, poor fit] |
| Cc1nc2ccccc2c(=O)n1/N=C/c1c(O)ccc2ccccc12 | inactive |
| O=C(NC1CCS(=O)(=O)C1)N1CCCCC1 (stereo not given) | inconclusive [inhibitor, single point] |
| Cc1ccc(C(=O)CN(C(=O)c2ccc(Cl)cc2)N2C(=O)CCC2=O)cc1 | inconclusive [inhibitor, partial curve] |
| CC1CN(Cc2nc3c(c(=O)[nH]c(=O)n3C)n2CC(N)=O)CC(C)O1 (stereo not given) | inconclusive [inhibitor, full curve] |
| Cc1cc(Br)cc(C)c1OCC(=O)NNC(=O)c1cccs1 | inconclusive [inhibitor, partial curve, poor fit] |
| CCS(=O)(=O)c1nc(S(=O)(=O)c2ccc(Cl)cc2)c(NCc2ccco2)s1 | inactive |
| O=C(CSc1nnc(NC(=O)c2ccco2)s1)NC1CCCCC1 | inconclusive [inhibitor, partial curve, poor fit] |
| O=C(NC(=Nc1ccccc1)N1CCOCC1)Nc1ccccc1 | inconclusive [inhibitor, full curve, poor fit] |
| Cc1cccc2c(N)c3c(nc12)CCCC3 (tested in a mixture with another compound) | inactive |
| COc1ccc(C(=O)NC2CCSc3ccccc32)cc1F (stereo not given) | inactive |
| O=C(CCS(=O)(=O)c1ccccc1)Nc1nncs1 | inactive |
| COc1ccc(C(=O)O/N=C(\N)c2ccccc2Cl)cc1OC | inactive |
| O=c1c2ccccc2c(-c2ccc(Cl)cc2)nn1-c1ccccc1 | inactive |
| Cc1ccc(NC(=S)Nc2ccccn2)cc1C | inactive |
| Clc1ccc(CNc2ccc(CNc3ncn[nH]3)cc2)cc1 | inconclusive [inhibitor, single point] |
| CCCCCC(=O)NNC1=NCC(Cc2ccccc2)S1 (stereo not given) | inactive |
| Cc1ccccc1OC(C)c1nc(-c2ccccc2)no1 (stereo not given) | inconclusive [inhibitor, full curve] |
| O=C(CSc1nnc(-c2ccncc2)n1-c1ccc(F)cc1)NC(=O)NCc1ccco1 | inconclusive [inhibitor, full curve, poor fit] |
| CC/C(=N\NC(=O)c1nnn(-c2nonc2N)c1-c1cccc(OC)c1)c1ccc(C)cc1 | inconclusive [inhibitor, full curve, poor fit] |
| COc1ccc(S(=O)(=O)N2CCCC2)c(Cl)c1Cl | inconclusive [inhibitor, full curve, poor fit] |
| O=C1C=C(O)CC(c2ccco2)C1 (stereo not given) | inconclusive [inhibitor, full curve] |
| Cc1cc(C)c(Cn2c(=O)n(CCCC(=O)NCc3ccco3)c(=O)c3sccc32)c(C)c1 | inconclusive [inhibitor, full curve] |
| Cc1nc2ccccc2c2oc(C(=O)N3CCC(N4CCCCC4)CC3)cc12 | inconclusive [inhibitor, full curve, poor fit] |

| Compound | Potency |
| --- | --- |
| O=C(CCc1nc2ccccc2s1)N1CCN(S(=O)(=O)c2cccs2)CC1 | inconclusive [inhibitor, full curve, poor fit] |
| Cn1cc(SCC(=O)Nc2ccc3c(c2)OCO3)c2ccccc21 | inconclusive [inhibitor, partial curve, poor fit] |
| O=C1c2ccccc2C(O)N1Cc1ccco1 (stereo not given) | inconclusive [inhibitor, full curve, poor fit] |
| O=C(c1ccccc1)c1cc2ccccc2o1 | inconclusive [inhibitor, full curve, poor fit] |
| CC(C)(C)C(=O)N1CCN(c2ccc(Cl)cc2[N+](=O)[O-])CC1 | inactive |
| Cc1noc(C)c1C(=O)N1CCN(c2ncccn2)CC1 | inconclusive [inhibitor, partial curve] |
| CCOC(=O)c1c(C)[nH]c(C)c1S(=O)(=O)N1CCC(C(=O)NCc2ccc(N(C)C)cc2)CC1 | inactive |
| COc1ccc(NS(=O)(=O)c2ccc(NC(=S)NC(=O)C(C)C)cc2)cc1 | inconclusive [inhibitor, partial curve, poor fit] |
| N#Cc1ccc(CSc2ncnc3c2cnn3Cc2ccccc2)cc1 | inconclusive [inhibitor, full curve, poor fit] |
| CSc1ncccc1C(=O)OCc1ccccc1F | inconclusive [inhibitor, single point] |
| CC(=O)c1c(C)[nH]c(C(=O)OC2CCOC2=O)c1C (stereo not given) | inconclusive [inhibitor, full curve] |
| CCS(=O)(=O)c1cccc(C(=O)N2CCN(c3nc4c(C)ccc(Cl)c4s3)CC2)c1 | inactive |
| CCNC(=O)c1cccc(NC(=O)CN2C(=O)NC3(CCCCC3)C2=O)c1 | inactive |
| O=C(c1cc(-c2ccc(F)cc2)on1)N1CCCCCC1 | inconclusive [inhibitor, full curve, poor fit] |
| COc1ccc(O[C@H]2C=C[C@@H](c3ccccc3)O[C@@H]2COC(=O)CCC(C)=NO[C@@H]2O[C@H](COC(C)=O)[C@@H](OC(C)=O)[C@H](OC(C)=O)[C@H]2OC(C)=O)cc1 | inconclusive [inhibitor, partial curve, poor fit] |
| CCCc1ccc(-c2ccc(C(=O)Oc3ccc(Br)cc3)cc2)nc1 | inactive |
| O=C(CSc1nc(=O)n(CCCN2CCOCC2)c2c1CCC2)Nc1ccccc1F | inconclusive [inhibitor, partial curve] |
| Cc1nn(C)c(C)c1S(=O)(=O)N1CCCC(C(=O)NC2CCCCCC2)C1 (stereo not given) | inconclusive [inhibitor, full curve, poor fit] |
| CSc1nc2c(c(=O)n1-c1ccc(F)cc1)SCC2 | inconclusive [inhibitor, full curve, poor fit] |
| CCOC(=O)c1ccccc1CN1C(=O)c2ccccc2S1(=O)=O | inconclusive [inhibitor, full curve, poor fit] |
| O=C1COc2cc(S(=O)(=O)CCC(=O)N3CCN(c4ccccc4)CC3)c(Cl)cc2N1 | inactive |
| CCOc1cc(C(=O)OCc2cc(=O)n3nc(C4CC4)sc3n2)cc(OCC)c1OCC | inactive |
